Experimental data reported in PMC5681660, “Reduced hepatitis B and D viral entry using clinically applied drugs as novel inhibitors of the bile acid transporter NTCP” (Scientific Reports, 2017).
Where a name gives a salt, the structure may show the parent alone.

target: T1, human NTCP (Homo sapiens, UniProt Q14973); test: Screening taurocholate uptake assay (96-well, [14C]taurocholate, 10 µM drug); conditions: 10 min, read-out: %NTCP activity, screening taurocholate uptake, 10 µM drug, Prestwick library
T1 sequence (Q14973 1-349): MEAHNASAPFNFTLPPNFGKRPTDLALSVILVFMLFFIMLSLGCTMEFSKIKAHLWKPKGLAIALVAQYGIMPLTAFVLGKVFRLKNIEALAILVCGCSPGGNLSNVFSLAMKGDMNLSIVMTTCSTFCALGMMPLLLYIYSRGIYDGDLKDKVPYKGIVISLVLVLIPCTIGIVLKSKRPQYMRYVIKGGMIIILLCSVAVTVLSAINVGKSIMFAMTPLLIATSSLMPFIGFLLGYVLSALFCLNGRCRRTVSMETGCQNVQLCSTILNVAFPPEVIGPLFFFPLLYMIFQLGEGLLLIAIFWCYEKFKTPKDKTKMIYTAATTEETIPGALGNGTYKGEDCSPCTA

Compound | remaining activity at 10 µM [%]
C=CC[C@]1(O)CC[C@H]2[C@@H]3CCC4=CC(=O)CCC4=C3C=C[C@@]21C [Altrenogest] | 90.2
Cn1c(=O)c2[nH]cnc2n(C)c1=O [Aminophylline] | 93.8
OC(c1ccccc1)(c1ccccc1)C1CCNCC1 [Azacyclonol] | 56.6
NC(=NCc1ccccc1)NC(=O)c1nc(Cl)c(N)nc1N [Benzamil hydrochloride] | 74.7
CC(NC(C)(C)C)C(=O)c1cccc(Cl)c1 (stereo not shown) [Bupropion hydrochloride] | 58.7
CC(C)(C)NCC(O)c1cc(Cl)c(N)c(Cl)c1 (stereo not shown) [Clenbuterol hydrochloride] | 69.6
C[C@]12N[C@H](Cc3ccccc31)c1ccccc12 [Dizocilpine maleate] | 81.6
O=c1[nH]c2ccccc2n1CCCN1CCC(n2c(=O)[nH]c3cc(Cl)ccc32)CC1 [Domperidone] | 53.4
C=CCOC(Cn1ccnc1)c1ccc(Cl)cc1Cl (stereo not shown) [Enilconazole] | 78.7
C=C1C[C@@H]2[C@H](CC[C@]3(C)C(=O)CC[C@@H]23)[C@@]2(C)C=CC(=O)C=C12 [Exemestane] | 120
C[C@@H]1C[C@H]2[C@@H]3C[C@H](F)C4=CC(=O)C=C[C@]4(C)[C@@]3(F)[C@@H](O)C[C@]2(C)[C@@]1(O)C(=O)COC(=O)C(C)(C)C [Flumethasone pivalate] | 108
CC(=O)O[C@H]1C[C@H](O[C@H]2[C@@H](O)C[C@H](O[C@H]3[C@@H](O)C[C@H](O[C@H]4CC[C@@]5(C)[C@H](CC[C@@H]6[C@@H]5C[C@@H](O)[C@]5(C)[C@@H](C7=CC(=O)OC7)CC[C@]65O)C4)O[C@@H]3C)O[C@@H]2C)O[C@H](C)[C@H]1O[C@@H]1O[C@H](CO)[C@@H](O)[C@H](O)[C@H]1O [Lanatoside C] | 51
CCC1(c2cccc(O)c2)CCCCN(C)C1 (stereo not shown) [Meptazinol hydrochloride] | 53.9
COc1ccc(OC)c(C(O)C(C)N)c1 (stereo not shown) [Methoxamine hydrochloride] | 66.9
NC(=O)C[S+]([O-])C(c1ccccc1)c1ccccc1 (stereo not shown) [Modafinil] | 52.6
C=C1CC[C@@]2(O)[C@H]3Cc4ccc(O)c5c4[C@@]2(CCN3CC2CC2)[C@H]1O5 [Nalmefene hydrochloride] | 121
C[C@]12C/C(=C/O)C(=O)C[C@@H]1CC[C@@H]1[C@@H]2CC[C@@]2(C)[C@H]1CC[C@]2(C)O [Oxymetholone] | 87.6
c1ccc2c(c1)Nc1ccccc1S2 [Phenothiazine] | 93.5
NC(=O)OCCCc1ccccc1 [Phenprobamate] | 114
C[n+]1ccccc1/C=N/O [Pralidoxime chloride] | 70
CCC1(CC)C(=O)C=CNC1=O [Pyrithyldione] | 104
CCN(C)C(=O)Oc1cccc([C@H](C)N(C)C)c1 [Rivastigmine] | 115
C#CCN(C)[C@H](C)Cc1ccccc1 [Selegiline hydrochloride] | 59.9

same assay, conditions: screening taurocholate uptake, 10 µM drug, Prestwick library

Compound | %NTCP activity [%]
CC(C)NCC(O)c1cc(O)cc(O)c1.CC(C)NCC(O)c1cc(O)cc(O)c1.O=S(=O)(O)O (stereo not shown) | 46.7406
CNCC(O)c1ccc(O)cc1 (racemic) [(+,-)-Synephrine] | 96.7977
CN(Cc1cnc2nc(N)nc(N)c2n1)c1ccc(C(=O)N[C@@H](CCC(=O)O)C(=O)O)cc1 (racemic) [Amethopterin (R,S)] | 71.2892
CC(=O)NC1CCSC1=O (racemic) [N-Acetyl-DL-homocysteine Thiolactone] | 111.761
O=C1c2cccc(O)c2C(=O)c2c(O)cccc21 [1,8-Dihydroxyanthraquinone] | 74.8966
CC(C)(C)NC[C@@H](O)COc1cccc2c1CCCC2=O.Cl [(+) -Levobunolol hydrochloride] | 110.169
C=CCN1CCCC1CNC(=O)c1cc2[nH]nnc2cc1OC.Cl (stereo not shown) [Alizapride HCl] | 94.6685
CN(C)C(=O)Oc1cc(OC(=O)N(C)C)cc(C(O)CNC(C)(C)C)c1.Cl (stereo not shown) [Bambuterol hydrochloride] | 105.036
CCCC(=O)Nc1ncnc2c1ncn2[C@@H]1O[C@@H]2COP(=O)([O-])O[C@H]2[C@H]1OC(=O)CCC.[Na+] [Bucladesine sodium salt] | 86.4993
NC(=O)OCC(O)COc1ccc(Cl)cc1 (stereo not shown) [Chlorphensin carbamate] | 140.827
CC(CN(C)C)C(C)(O)Cc1ccc(Cl)cc1.Cl (stereo not shown) [Clobutinol hydrochloride] | 53.2009
CN1CCN(C(c2ccccc2)c2ccccc2)CC1.Cl [Cyclizine hydrochloride] | 63.939
CN(C)CCN1C(=O)c2ccccc2N(C)c2ccccc21.Cl [Dibenzepine hydrochloride] | 39.6298
COc1cc(C(=O)OCCCN2CCCN(CCCOC(=O)c3cc(OC)c(OC)c(OC)c3)CC2)cc(OC)c1OC.Cl.Cl [Dilazep dihydrochloride] | 103.189
CS(=O)(=O)O.O=C(O[C@H]1C[C@H]2CC3C[C@@H](C1)N2CC3=O)c1c[nH]c2ccccc12 [Dolasetron mesilate] | 77.9066
C#C[C@]1(O)CC[C@H]2[C@@H]3CCc4cc(OC)ccc4[C@H]3CC[C@@]21C [Ethynylestradiol 3-methyl ether] | 106.862
O=C1NCN(c2ccccc2)C12CCN(CCCC(c1ccc(F)cc1)c1ccc(F)cc1)CC2 [Fluspirilen] | 99.8244
Cl.O=C1OC(CN2CCOCC2)CN1/N=C/c1ccc([N+](=O)[O-])o1 (stereo not shown) [Furaltadone hydrochloride] | 93.127
COc1ccc([C@@H]2CC(=O)c3c(O)cc(O[C@@H]4O[C@H](CO[C@@H]5O[C@@H](C)[C@H](O)[C@@H](O)[C@H]5O)[C@@H](O)[C@H](O)[C@H]4O)cc3O2)cc1O [Hesperidin] | 92.3807

Compound | %NTCP activity [%]
COc1ccc(CCN)cc1OC [Homoveratrylamine] | 104.423
C[C@]12CCC(=O)C=C1CC[C@@H]1[C@@H]2[C@@H](O)C[C@@]2(C)[C@H]1CC[C@]2(O)C(=O)CO [Hydrocortisone base] | 47.3578
NC(N)=NCc1cccc(I)c1.NC(N)=NCc1cccc(I)c1.O=S(=O)(O)O [Iobenguane sulfate] | 89.644
CC(C)NNC(=O)c1ccncc1.O=P(O)(O)O [Iproniazide phosphate] | 94.348
CCC(NC(C)C)C(O)c1ccc(O)c(O)c1.CS(=O)(=O)O (stereo not shown) [Isoetharine mesylate salt] | 106.702
N#Cc1cc(NC(=O)C(=O)O)c(Cl)c(NC(=O)C(=O)O)c1 [Lodoxamide] | 50.9892
N[C@@H](C(=O)N[C@@H]1C(=O)N2C(C(=O)O)=C(Cl)CC[C@H]12)c1ccccc1 [Loracarbef] | 100.693
C=C1c2c(Cl)ccc(O)c2C(=O)C2=C(O)[C@]3(O)C(=O)C(C(N)=O)=C(O)[C@@H](N(C)C)[C@@H]3[C@@H](O)[C@H]12.O=C(O)c1cc(S(=O)(=O)O)ccc1O [Meclocycline sulfosalicylate] | 58.2901
Cc1cccc(CN2CCN(C(c3ccccc3)c3ccc(Cl)cc3)CC2)c1.Cl.Cl (stereo not shown) [Meclozine dihydrochloride] | 43.965
CCN(CC)CCNC(=O)c1cc(Cl)c(N)cc1OC.Cl [Metoclopramide monohydrochloride] | 131.228
CNc1ncnc2c1ncn2[C@@H]1O[C@H](CO)[C@@H](O)[C@H]1O [N6-methyladenosine] | 77.1948
CCn1cc(C(=O)[O-])c(=O)c2ccc(C)nc21.[Na+] [Nalidixic acid sodium salt] | 93.1251
CCN(CC)CCc1nc(-c2ccccc2)no1.O=C(O)CC(O)(CC(=O)O)C(=O)O [Oxalamine citrate salt] | 107.21
CS(=O)(=O)O.Cc1ccc2c(c1)c1c3n2CCNC3CCC1 (stereo not shown) [Pirlindole mesylate] | 102.068
CC[N+](C)(CC)CCC[n+]1c(-c2ccccc2)c2cc(N)ccc2c2ccc(N)cc21.[I-].[I-] [Propidium iodide] | 56.1956
CN(C)C(=O)Oc1ccc[n+](C)c1.[I-] [Pyridostigmine iodide] | 124.801
CCN1CCC[C@H]1CNC(=O)c1c(OC)ccc(Br)c1OC.Cl [Remoxipride Hydrochloride] | 99.19
CN1[C@@H]2CC(OC(=O)[C@H](CO)c3ccccc3)C[C@H]1[C@@H]1O[C@@H]12.Cl (stereo partly shown) [Scopolamine hydrochloride] | 114.694
O.O=C1C(O)=C(O)C(=O)C(O)=C1O [Tetrahydroxy-1,4-quinone hydrate] | 112.78
